# From the supplement of paper PMC8728848
# The list shows a part of the results.
# B1: Factor H (Homo sapiens), P08603 (protein)
# chain: MRLLAKIICLMLWAICVAEDCNELPPRRNTEILTGSWSDQTYPEGTQAIYKCRPGYRSLGNVIMVCRKGEWVALNPLRKCQKRPCGHPGDTPFGTFTLTGGNVFEYGVKAVYTCNEGYQLLGEINYRECDTDGWTNDIPICEVVKCLPVTAPENGKIVSSAMEPDREYHFGQAVRFVCNSGYKIEGDEEMHCSDDGFWSKEKPKCVEISCKSPDVINGSPISQKIIYKENERFQYKCNMGYEYSERGDAVCTESGWRPLPSCEEKSCDNPYIPNGDYSPLRIKHRTGDEITYQCRNGFYPATRGNTAKCTSTGWIPAPRCTLKPCDYPDIKHGGLYHENMRRPYFPVAVGKYYSYYCDEHFETPSGSYWDHIHCTQDGWSPAVPCLRKCYFPYLENGYNQNYGRKFVQGKSIDVACHPGYALPKAQTTVTCMENGWSPTPRCIRVKTCSKSSIDIENGFISESQYTYALKEKAKYQCKLGYVTADGETSGSITCGKDGWSAQPTCIKSCDIPVFMNARTKNDFTWFKLNDTLDYECHDGYESNTGSTTGSIVCGYNGWSDLPICYERECELPKIDVHLVPDRKKDQYKVGEVLKFSCKPGFTIVGPNSVQCYHFGLSPDLPICKEQVQSCGPPPELLNGNVKEKTKEEYGHSEVVEYYCNPRFLMKGPNKIQCVDGEWTTLPVCIVEESTCGDIPELEHGWAQLSSPPYYYGDSVEFNCSESFTMIGHRSITCIHGVWTQLPQCVAIDKLKKCKSSNLIILEEHLKNKKEFDHNSNIRYRCRGKEGWIHTVCINGRWDPEVNCSMAQIQLCPPPPQIPNSHNMTTTLNYRDGEKVSVLCQENYLIQEGEEITCKDGRWQSIPLCVEKIPCSQPPQIEHGTINSSRSSQESYAHGTKLSYTCEGGFRISEENETTCYMGKWSSPPQCEGLPCKSPPEISHGVVAHMSDSYQYGEEVTYKCFEGFGIDGPAIAKCLGEKWSHPPSCIKTDCLSLPSFENAIPMGEKKDVYKAGEQVTYTCATYYKMDGASNVTCINSRWTGRPTCRDTSCVNPPTVQNAYIVSRQMSKYPSGERVRYQCRSPYEMFGDEEVMCLNGNWTEPPQCKDSTGKCGPPPPIDNGDITSFPLSVYAPASSVEYQCQNLYQLEGNKRITCRNGQWSEPPKCLHPCVISREIMENYNIALRWTAKQKLYSRTGESVEFVCKRGYRLSSRSHTLRTTCWDGKLEYPTCAKR
# Key:
# Test in all cases: glycan array binding signal (z-score within array); higher = stronger binding
# Conditions in all cases: glycan notation: IUPAC condensed, linker removed
# GalNAc(b1-3)GalNAc = molecular target: GalNAc(b1-3)GalNAc
# How it was run: (§1)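 Glycan array data were curated from 3228 arrays in the Consortium for Functional Glycomics database and kept only where the protein sequence was available. Glycan names were converted to IUPAC-condensed notation, and columns mapping to the same glycan were averaged. The binding signal is a within-array Z-score, averaged across arrays of the same protein sequence at different concentrations or buffers and across linkers. Negative Z-scores can be read as non-binding.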
# GalNAc(b1-4)GlcNAc = molecular target: GalNAc(b1-4)GlcNAc
# How it was run: as §1
# Glc(a1-4)Glc = molecular target: Glc(a1-4)Glc
# How it was run: as §1
# Glc(a1-6)Glc(a1-6)Glc = molecular target: Glc(a1-6)Glc(a1-6)Glc
# How it was run: as §1
# Glc(b1-4)Glc = molecular target: Glc(b1-4)Glc
# How it was run: as §1
# Glc(b1-6)Glc = molecular target: Glc(b1-6)Glc
# How it was run: as §1
# GlcA(b1-3)Gal = molecular target: GlcA(b1-3)Gal
# How it was run: as §1
# GlcA(b1-3)GlcNAc = molecular target: GlcA(b1-3)GlcNAc
# How it was run: as §1
# GlcA(b1-6)Gal = molecular target: GlcA(b1-6)Gal
# How it was run: as §1
# [1] = molecular target: GlcNAc(a1-3)Gal(b1-4)GlcNAc
# How it was run: as §1
# [2] = molecular target: GlcNAc(a1-6)Gal(b1-4)GlcNAc
# How it was run: as §1
# [3] = molecular target: GlcNAc(b1-2)Gal(b1-3)GalNAc
# How it was run: as §1
# [4] = molecular target: GlcNAc(b1-2)Man(a1-3)[GlcNAc(b1-2)Man(a1-6)]Man(b1-4)GlcNAc(b1-4)GlcNAc
# How it was run: as §1
# GlcNAc(b1-3)Gal = molecular target: GlcNAc(b1-3)Gal
# How it was run: as §1
# [5] = molecular target: GlcNAc(b1-3)Gal(b1-3)GalNAc
# How it was run: as §1
# GlcNAc(b1-3)Gal(b1-4)Glc = molecular target: GlcNAc(b1-3)Gal(b1-4)Glc
# How it was run: as §1
# [6] = molecular target: GlcNAc(b1-3)Gal(b1-4)GlcNAc
# How it was run: as §1
# [7] = molecular target: GlcNAc(b1-3)Gal(b1-4)GlcNAc(b1-3)Gal(b1-4)GlcNAc
# How it was run: as §1
# GlcNAc(b1-3)GalNAc = molecular target: GlcNAc(b1-3)GalNAc
# How it was run: as §1
# GlcNAc(b1-3)Man = molecular target: GlcNAc(b1-3)Man
# How it was run: as §1
# [8] = molecular target: GlcNAc(b1-3)[GlcNAc(b1-4)][GlcNAc(b1-6)]GlcNAc
# How it was run: as §1
# [9] = molecular target: GlcNAc(b1-3)[GlcNAc(b1-6)]Gal(b1-4)GlcNAc
# How it was run: as §1
# [10] = molecular target: GlcNAc(b1-3)[GlcNAc(b1-6)]GalNAc
# How it was run: as §1
# [11] = molecular target: GlcNAc(b1-4)Gal(b1-4)GlcNAc
# How it was run: as §1
# GlcNAc(b1-4)GlcNAc = molecular target: GlcNAc(b1-4)GlcNAc
# How it was run: as §1
# [12] = molecular target: GlcNAc(b1-4)GlcNAc(b1-4)GlcNAc
# How it was run: as §1
# [13] = molecular target: GlcNAc(b1-4)GlcNAc(b1-4)GlcNAc(b1-4)GlcNAc(b1-4)GlcNAc
# How it was run: as §1
# [14] = molecular target: GlcNAc(b1-4)GlcNAc(b1-4)GlcNAc(b1-4)GlcNAc(b1-4)GlcNAc(b1-4)GlcNAc
# How it was run: as §1
# [15] = molecular target: GlcNAc(b1-4)[GlcNAc(b1-6)]GalNAc
# How it was run: as §1
# [16] = molecular target: GlcNAc(b1-6)Gal(b1-4)GlcNAc
# How it was run: as §1
# GlcNAc(b1-6)GalNAc = molecular target: GlcNAc(b1-6)GalNAc
# How it was run: as §1
# GlcNAc3Prop(b1-4)GlcNAc = molecular target: GlcNAc3Prop(b1-4)GlcNAc
# How it was run: as §1
# Kdn(a2-3)Gal(b1-3)GlcNAc = molecular target: Kdn(a2-3)Gal(b1-3)GlcNAc
# How it was run: as §1
# Kdn(a2-3)Gal(b1-4)GlcNAc = molecular target: Kdn(a2-3)Gal(b1-4)GlcNAc
# How it was run: as §1
# [17] = molecular target: Man(a1-2)Man(a1-2)Man(a1-3)Man
# How it was run: as §1
# [18] = molecular target: Man(a1-2)Man(a1-2)Man(a1-6)[Man(a1-3)]Man
# How it was run: as §1
# Man(a1-2)Man(a1-3)Man = molecular target: Man(a1-2)Man(a1-3)Man
# How it was run: as §1
# [19] = molecular target: Man(a1-2)Man(a1-3)[Man(a1-2)Man(a1-6)]Man
# How it was run: as §1
# [20] = molecular target: Man(a1-2)Man(a1-3)[Man(a1-2)Man(a1-6)]Man(a1-6)[Man(a1-2)Man(a1-2)Man(a1-3)]Man
# How it was run: as §1
# [21] = molecular target: Man(a1-2)Man(a1-3)[Man(a1-2)Man(a1-6)]Man(a1-6)[Man(a1-2)Man(a1-2)Man(a1-3)]Man(b1-4)GlcNAc(b1-4)GlcNAc
# How it was run: as §1
# [22] = molecular target: Man(a1-2)Man(a1-3)[Man(a1-6)]Man(a1-6)[Man(a1-2)Man(a1-3)]Man(b1-4)GlcNAc(b1-4)GlcNAc
# How it was run: as §1
# [23] = molecular target: Man(a1-2)Man(a1-6)[Man(a1-3)]Man(a1-6)[Man(a1-2)Man(a1-2)Man(a1-3)]Man
# How it was run: as §1
# [24] = molecular target: Man(a1-2)Man(a1-6)[Man(a1-3)]Man(a1-6)[Man(a1-2)Man(a1-2)Man(a1-3)]Man(b1-4)GlcNAc(b1-4)GlcNAc
# How it was run: as §1
# Man(a1-3)[Man(a1-6)]Man = molecular target: Man(a1-3)[Man(a1-6)]Man
# How it was run: as §1
# [25] = molecular target: Man(a1-3)[Man(a1-6)]Man(a1-6)[Man(a1-2)Man(a1-3)]Man(b1-4)GlcNAc(b1-4)GlcNAc
# How it was run: as §1
binder,measurement,setting,value
B1,glycan array binding signal (z-score),GalNAc(b1-3)GalNAc,0.345
same,glycan array binding signal (z-score),GalNAc(b1-4)GlcNAc,-0.186
same,glycan array binding signal (z-score),Glc(a1-4)Glc,-0.343
same,glycan array binding signal (z-score),Glc(a1-6)Glc(a1-6)Glc,0.357
same,glycan array binding signal (z-score),Glc(b1-4)Glc,-0.507
same,glycan array binding signal (z-score),Glc(b1-6)Glc,1.55
same,glycan array binding signal (z-score),GlcA(b1-3)Gal,-0.108
same,glycan array binding signal (z-score),GlcA(b1-3)GlcNAc,-0.298
same,glycan array binding signal (z-score),GlcA(b1-6)Gal,-0.147
same,glycan array binding signal (z-score),[1],-0.015
same,glycan array binding signal (z-score),[2],-0.172
same,glycan array binding signal (z-score),[3],0.157
same,glycan array binding signal (z-score),[4],-0.458
same,glycan array binding signal (z-score),GlcNAc(b1-3)Gal,-0.286
same,glycan array binding signal (z-score),[5],-0.157
same,glycan array binding signal (z-score),GlcNAc(b1-3)Gal(b1-4)Glc,-0.643
same,glycan array binding signal (z-score),[6],-0.094
same,glycan array binding signal (z-score),[7],-0.383
same,glycan array binding signal (z-score),GlcNAc(b1-3)GalNAc,0.52
same,glycan array binding signal (z-score),GlcNAc(b1-3)Man,2.51
same,glycan array binding signal (z-score),[8],0.377
same,glycan array binding signal (z-score),[9],-0.549
same,glycan array binding signal (z-score),[10],1
same,glycan array binding signal (z-score),[11],0.172
same,glycan array binding signal (z-score),GlcNAc(b1-4)GlcNAc,-0.122
same,glycan array binding signal (z-score),[12],-0.479
same,glycan array binding signal (z-score),[13],-0.497
same,glycan array binding signal (z-score),[14],-0.101
same,glycan array binding signal (z-score),[15],1.2
same,glycan array binding signal (z-score),[16],-0.593
same,glycan array binding signal (z-score),GlcNAc(b1-6)GalNAc,0.076
same,glycan array binding signal (z-score),GlcNAc3Prop(b1-4)GlcNAc,-0.617
same,glycan array binding signal (z-score),Kdn(a2-3)Gal(b1-3)GlcNAc,1.99
same,glycan array binding signal (z-score),Kdn(a2-3)Gal(b1-4)GlcNAc,-0.5
same,glycan array binding signal (z-score),[17],-0.099
same,glycan array binding signal (z-score),[18],-0.034
same,glycan array binding signal (z-score),Man(a1-2)Man(a1-3)Man,-0.002
same,glycan array binding signal (z-score),[19],0.253
same,glycan array binding signal (z-score),[20],-0.497
same,glycan array binding signal (z-score),[21],-0.18
same,glycan array binding signal (z-score),[22],-0.264
same,glycan array binding signal (z-score),[23],-0.682
same,glycan array binding signal (z-score),[24],-0.199
same,glycan array binding signal (z-score),Man(a1-3)[Man(a1-6)]Man,0.006
same,glycan array binding signal (z-score),[25],-0.106
